About 2,200 (0.71%) of roughly 310,000 compounds showed an effect of 50% or more. The effect is printed as a negative number. Some of the results follow.

Here are results for 91 compounds from publication PMC4336329 (PLoS ONE, 2015).

Sequence of human ether-à-go-go-related gene (hERG) potassium channel (Q12809 whole entry, looked up): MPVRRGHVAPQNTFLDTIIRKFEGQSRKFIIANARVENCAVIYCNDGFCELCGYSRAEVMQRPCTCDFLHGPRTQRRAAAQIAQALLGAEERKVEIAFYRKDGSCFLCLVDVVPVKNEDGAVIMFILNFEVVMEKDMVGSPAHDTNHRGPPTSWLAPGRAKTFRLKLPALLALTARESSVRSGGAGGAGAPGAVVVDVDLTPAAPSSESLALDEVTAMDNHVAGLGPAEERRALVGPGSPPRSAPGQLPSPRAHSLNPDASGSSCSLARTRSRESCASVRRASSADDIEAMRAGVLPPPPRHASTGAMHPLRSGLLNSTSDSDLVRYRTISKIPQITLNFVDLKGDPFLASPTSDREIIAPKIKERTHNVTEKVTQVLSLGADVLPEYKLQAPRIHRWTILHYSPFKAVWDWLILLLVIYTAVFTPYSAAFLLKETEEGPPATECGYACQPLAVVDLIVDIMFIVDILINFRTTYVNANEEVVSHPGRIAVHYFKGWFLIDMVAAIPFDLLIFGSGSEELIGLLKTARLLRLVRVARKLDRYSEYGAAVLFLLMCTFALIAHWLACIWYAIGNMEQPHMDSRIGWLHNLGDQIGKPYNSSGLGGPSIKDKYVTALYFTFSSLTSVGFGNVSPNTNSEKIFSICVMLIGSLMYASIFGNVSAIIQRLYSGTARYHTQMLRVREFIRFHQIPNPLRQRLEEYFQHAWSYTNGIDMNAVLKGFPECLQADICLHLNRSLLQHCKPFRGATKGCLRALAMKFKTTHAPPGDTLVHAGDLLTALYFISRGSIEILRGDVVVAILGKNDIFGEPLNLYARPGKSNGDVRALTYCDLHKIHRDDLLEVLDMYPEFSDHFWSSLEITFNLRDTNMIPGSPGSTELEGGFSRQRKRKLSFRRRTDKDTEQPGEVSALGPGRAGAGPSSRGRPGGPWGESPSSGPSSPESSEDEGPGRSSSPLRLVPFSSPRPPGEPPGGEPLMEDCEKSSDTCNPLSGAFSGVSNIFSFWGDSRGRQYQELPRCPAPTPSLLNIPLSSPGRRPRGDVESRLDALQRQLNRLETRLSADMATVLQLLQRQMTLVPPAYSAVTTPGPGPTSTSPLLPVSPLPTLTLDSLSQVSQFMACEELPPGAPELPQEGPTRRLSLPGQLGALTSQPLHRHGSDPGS

This test addresses human ether-à-go-go-related gene (hERG) potassium channel (human, UniProt Q12809). In words: primary screen, population patch clamp on CHO cells stably expressing hERG.
With `CC(=O)Nc1ccc(NC(=O)C(C)OC(=O)C2(c3ccc(Cl)cc3)CCCC2)cc1` (stereo not shown), the “hERG current change (%, negative = inhibition) at 1uM” value was found to be 8.8%. To `CCC(C)c1ccc(OCC(=O)O)cc1` (stereo not shown) belongs 6.66%. In the case of `O=C1CC(C(=O)Nc2ncccn2)C(c2ccccc2)O1` (stereo not shown), the “hERG current change (%, negative = inhibition) at 1uM” value was 6.34%.

Regarding `Nc1nnc(C(=O)c2ccccc2N)s1`, the “hERG current change (%, negative = inhibition) at 1uM” value came to 2.64%. To `O=c1c2ccccc2nc2n1CCCN2` belongs 13.5%; to `O=C(CSC(=S)N1CCSCC1)c1ccc(Cl)cc1`, 8.62%.

For `COc1ccc(S(=O)(=O)N2CCC(=O)N2)cc1`, the “hERG current change (%, negative = inhibition) at 1uM” value is 15.7%. Turning to `CCOC(=O)N1CCC(NS(=O)(=O)c2cc(Br)cc3c2N(C(=O)CC)CC3)CC1`, the “hERG current change (%, negative = inhibition) at 1uM” value was determined as 11.1%. As for `CCOC(=O)CSC1=C(C#N)C(C)C2=C(CCCC2=O)N1` (stereo not shown), the “hERG current change (%, negative = inhibition) at 1uM” value is 0.85%.

Regarding `CCC(=O)c1ccc(OCC(O)CN2CCCCC2)cc1.Cl` (stereo not shown), the “hERG current change (%, negative = inhibition) at 1uM” value is given as 3.96%.

Turning to `Cc1ccc2c(c1)N(CCC(=O)NC1CCCCC1C)C(=O)CO2` (stereo not shown), the “hERG current change (%, negative = inhibition) at 1uM” value came to 20.8%.

For the compound `Cc1occc1-c1nnc(SCC(=O)Nc2c(F)cccc2F)n1C`, the “hERG current change (%, negative = inhibition) at 1uM” value was 5.07%.

For the compound `COc1ccc(CN(C)CC(=O)Nc2ccc(Cl)cc2F)c(OC)c1.O=C(O)C(=O)O`, the “hERG current change (%, negative = inhibition) at 1uM” value turned out to be 7.84%. On to `COc1ccc(C2C(C#N)=C(SCC(=O)Nc3ccc(C)cc3)NC3=C2C(=O)CC(C)(C)C3)cc1` (stereo not shown), for which the “hERG current change (%, negative = inhibition) at 1uM” value stood at 11.1%. To `CC(C)N(Cc1nccn1C)C(=O)c1cc(COc2ccc3ncccc3c2)on1` belongs 6.13%. As to `Cc1c(C(=O)N2CCOCC2)[nH]c2c1C(=O)CC(c1ccc(Cl)cc1)C2` (stereo not shown), the “hERG current change (%, negative = inhibition) at 1uM” value is recorded as -7.88%. On to `CC(C)(C)NC[C@H](O)COc1nsnc1N1CCOCC1.O=C(O)/C=C\C(=O)O`, for which the “hERG current change (%, negative = inhibition) at 1uM” value is on record as 13.2%. For `COc1cc2c(cc1OC)C(c1ccccc1)N(C(=O)CSCC(=O)O)CC2` (stereo not shown) the value was 16.8%; for `COc1ccc(Br)cc1CN(C)CC(=O)Nc1ccccc1Cl`, -1.67%; for `CCC(C(=O)OCC(=O)Nc1ccc(C(N)=O)cc1)c1ccccc1` (stereo not shown), -8.46%. To `COC(=O)c1ccc(CSc2nnc(NC(C)C)s2)cc1` belongs 3.14%. To `O=c1[nH]c(/C=C/c2ccc(Br)cc2)nc2ccccc12` belongs 8.11%; to `Cc1ccccc1-c1nc(CS(=O)CC(=O)NCc2ccccn2)c(C)o1` (stereo not shown), 16.3%. Consider `Oc1ccccc1Oc1ncc(Br)c(N2CCOCC2)n1`, for which the “hERG current change (%, negative = inhibition) at 1uM” value is -9.87%. For `Cc1c(Br)cc(C(=O)OC2CCN(C)CC2)c(C)c1C` the value was 9.06%; for `Cc1ccc(S(=O)(=O)CCC(=O)OCC(=O)c2ccc(C)c(C)c2)cc1`, 16.1%; for `COc1ccc([N+](=O)[O-])cc1NC(C)C`, 5.16%. To `CC(=O)c1ccc(OCC(=O)Nc2c(C)nn(-c3ccccc3)c2C)cc1` belongs 13.9%.

Turning to `CCOc1cc2nc(-c3ccc(OC)c(OC)c3)nc(N3CC(C)OC(C)C3)c2cc1OC` (stereo not shown), the “hERG current change (%, negative = inhibition) at 1uM” value turned out to be 15.3%. For `CCOC(=O)C1(C)NC(c2ccccc2F)C2C(=O)N(CC)C(=O)C21` (stereo not shown) the value was 12.5%; for `Cc1ccc(SCC(=O)c2c(C)nc3cc(C)ccn23)cc1`, 24.6%; for `c1ccc(-n2cnc3cc(NCc4ccncc4)ccc32)cc1`, 5.4%. To `CCc1noc(C)c1C(=O)N1CCCC(N2CCN(c3ccccc3F)CC2)C1` (stereo not shown) belongs -0.882%; to `O=C(CSc1nnc2ccccn12)NC(=O)NC1CCCCC1`, 2.32%; to `CN(C)CC/C=C1/c2ccccc2Sc2ccc(Cl)cc21`, 10.9%.

In the case of `CCOc1ccc(C(=O)COC(=O)c2cc(=O)[nH]c3ccccc23)cc1`, the “hERG current change (%, negative = inhibition) at 1uM” value came to 7.03%. In the case of `Cc1ccsc1/C=c1\sc2ncnn2c1=O`, the “hERG current change (%, negative = inhibition) at 1uM” value is 10.9%. For `Cc1ccc(NC(=O)CSc2nnc(-c3cccs3)n2Cc2ccco2)cc1` the value was -42%. To `CSCCC(NS(=O)(=O)c1ccc2c(c1)oc(=O)n2C)C(=O)NCc1ccccc1` (stereo not shown) belongs 12%; to `COc1ccc(C2CC(c3cccs3)=NN2C(=O)CSc2nc3c(cnn3-c3ccccc3)c(=O)[nH]2)cc1` (stereo not shown), 0.415%. For the compound `COCCNS(=O)(=O)c1cccc2cccnc12`, the “hERG current change (%, negative = inhibition) at 1uM” value stood at 15.4%. For `CCc1ccc2c(c1)C1(NN=C(c3cccc4ccccc34)S1)C(=O)N2` (stereo not shown) the value was 12.5%; for `O=C(O)c1ccccc1NC(c1ccccc1)c1ccc(Cl)cc1` (stereo not shown), 19.6%. Turning to `COCCNc1c(-c2cc3ccc(C)c(C)c3[nH]c2=O)nc2ccccn12`, the “hERG current change (%, negative = inhibition) at 1uM” value was -77%. For `O=C1NC(=S)N(c2ccc(F)cc2)C(=O)/C1=C/c1ccco1` the value was 10.3%; for `N#Cc1ccc(CSc2nnc3ccccn23)cc1`, 4.13%.

In the case of `Cc1csc2nc(O)c(C(=O)NCCCc3ccccc3)c(=O)n12`, the “hERG current change (%, negative = inhibition) at 1uM” value was -2.65%. Turning to `COc1ccc2c(CC(=O)NC(Cc3ccc(Cl)cc3)C(=O)O)cc(=O)oc2c1C` (stereo not shown), the “hERG current change (%, negative = inhibition) at 1uM” value is reported as 8.85%.

For `COc1ccc(S(=O)(=O)N(C)c2ccc(C(=O)NCC3CCCO3)cc2)cc1OC` (stereo not shown), the “hERG current change (%, negative = inhibition) at 1uM” value is on record as 8.52%. In the case of `O=C(Cn1cnc2c(nnn2Cc2ccc(F)cc2)c1=O)NCc1ccccc1`, the “hERG current change (%, negative = inhibition) at 1uM” value is recorded as 7.8%. With `CC(C)(C)OC(=O)N[C@@H](C(=O)OC(C)(C)C)c1ccc(Br)cc1`, the “hERG current change (%, negative = inhibition) at 1uM” value came out at 15.8%.

`CCC(Sc1nc2cc(OC)c(OC)cc2c(=O)n1CCc1ccc(S(N)(=O)=O)cc1)C(=O)NCCOC` (stereo not shown): the “hERG current change (%, negative = inhibition) at 1uM” value is -2.61%. Consider `COc1ccc(/C=N\NC(=O)c2ccc(-c3ccccc3)cc2)c(OC)c1OC`, for which the “hERG current change (%, negative = inhibition) at 1uM” value is 12%. As to `Cc1cc(C)c(S(=O)(=O)Nc2ccccc2C(=O)OCC(=O)NCc2ccccc2)c(C)c1`, the “hERG current change (%, negative = inhibition) at 1uM” value came to 9.3%.

On to `CCOC(=O)C1(CCCc2ccccc2)CCN(C(=O)c2cnn(CC)c2)CC1`, for which the “hERG current change (%, negative = inhibition) at 1uM” value is on record as -3.79%. As to `O=C(NC(=S)N(CCO)Cc1ccccc1)c1ccc(F)cc1Cl`, the “hERG current change (%, negative = inhibition) at 1uM” value came out at 8.89%.

Consider `COc1cccc(OCCSc2nnc3sc4ccccc4n23)c1`, for which the “hERG current change (%, negative = inhibition) at 1uM” value is 7.78%. For `CC(Oc1ccc(Br)cc1)C(=O)NCC(c1cccs1)N1CCOCC1` (stereo not shown) the value was -6.38%; for `COC(=O)CC(CP(=O)([O-])CN(C)C=O)C(=O)OC` (stereo not shown), 9.35%; for `CC(C)CC1NC(=O)N(CC(=O)N2CCCc3ccccc32)C1=O` (stereo not shown), 9.71%. For `COc1cccc(C(=O)Nc2ccc(N3CCN(Cc4ccccc4)CC3)cc2)c1` the value was 10.5%. For `Cc1ccc(C(C)C)c(OCC(O)CN(C)Cc2ccccc2)c1.Cl` (stereo not shown) the value was 8.01%; for `C=CCN(Cc1ccco1)S(=O)(=O)c1ccc(Cl)cc1`, 8.29%; for `CNC(=O)Cn1c(=O)n(C)c2ccccc21`, 1.2%. Turning to `C=CCN1C(=O)CC(C(=O)NC)SC1=Nc1ccc(C(=O)OCC)cc1` (stereo not shown), the “hERG current change (%, negative = inhibition) at 1uM” value is reported as 15.3%. In the case of `O=C(Nc1ccc2c(c1)OCO2)C1CCCCN1S(=O)(=O)c1ccccc1` (stereo not shown), the “hERG current change (%, negative = inhibition) at 1uM” value was found to be 3.49%. For the compound `CCN(CC)C(=O)CSC1c2ccccc2C(=O)N1c1ccccc1` (stereo not shown), the “hERG current change (%, negative = inhibition) at 1uM” value is reported as 0.631%. For `COc1ccc(NC(=O)C2CCC(N3C(=O)C4CCCCC4C3=O)CC2)cc1` (stereo not shown) the value was 9.94%; for `COc1ccc(Cl)cc1NC(=O)CSc1nc2ccsc2c(=O)n1CC1CCC(C(=O)O)CC1` (stereo not shown), 7.89%. To `O=C(CSc1ccc(-c2cccs2)nn1)Nc1ccccc1F` belongs -13.8%; to `COc1ccc2c(c1)C(=O)C(=O)N2`, 15.4%; to `CCCNC(=O)NC(=O)CN1CCCC1c1ccc2c(c1)OCCO2` (stereo not shown), 8.83%. As for `Cc1onc(-c2ccccc2Cl)c1C(=O)N(Cc1ccc(N(C)C)cc1)C(C)C`, the “hERG current change (%, negative = inhibition) at 1uM” value is recorded as 16.2%. As for `Cc1ccc(C(C(=O)NCc2ccc(F)cc2)N(Cc2ccco2)C(=O)c2snc(C(N)=O)c2N)o1` (stereo not shown), the “hERG current change (%, negative = inhibition) at 1uM” value worked out at 16.6%. Consider `CC(C)Oc1ccc(C(=O)Nc2ccc(N3CCN(C(=O)c4ccco4)CC3)cc2)cc1`, for which the “hERG current change (%, negative = inhibition) at 1uM” value came to 6.88%. For `CCOC(=O)N1CCC(N2C(=O)c3ccccc3C2Nc2ccccc2C)CC1` (stereo not shown) the value was -8.54%; for `CC(C)(C)c1nc(N)nc(=O)[nH]1`, 9.8%. To `CC(=N\NC(=O)c1ccc([N+](=O)[O-])cc1)/C(=N/O)C(=O)Nc1ccccc1` belongs -1.37%. For `c1cncc(CSc2ccc(-c3cccnc3)nn2)c1` the value was 9.38%; for `COc1ccc(C(=O)OCN2C(=O)c3ccccc3C2=O)cc1`, 14.9%. With `CCOC(=O)c1c(C)[nH]c(C(=O)COC(=O)COc2ccccc2C)c1C`, the “hERG current change (%, negative = inhibition) at 1uM” value amounted to 4.95%.

For `COc1ccc(S(=O)(=O)N2CCOCC2)cc1NC(=O)Cc1coc2cc(C)c(C)cc12`, the “hERG current change (%, negative = inhibition) at 1uM” value was 14%. To `CCNc1cc(N2CCOCC2)nc(SC)n1` belongs 8.31%; to `CC/C(=N\Nc1nncc2ccccc12)c1ccc(F)cc1`, 3.77%.

As for `CN1CCN(C2=NCCO2)CC1`, the “hERG current change (%, negative = inhibition) at 1uM” value is reported as 1.97%. Regarding `Cc1cccc(C(=O)N2CCN(S(=O)(=O)N3CCCCC3)CC2)c1`, the “hERG current change (%, negative = inhibition) at 1uM” value is recorded as 11.8%. For `CC(=O)c1cccc(OCc2cc(C(=O)N3CCSCC3)no2)c1`, the “hERG current change (%, negative = inhibition) at 1uM” value amounted to 14.9%. Consider `CCOC(=O)CSc1ncnc2c(C(=O)OCC)c3n(c12)CCC3`, for which the “hERG current change (%, negative = inhibition) at 1uM” value was -10.4%.

On to `O=C(O)c1ccc(-c2cccc(Cl)c2)o1`, for which the “hERG current change (%, negative = inhibition) at 1uM” value stood at 5.28%. For `CN(C)/C=C/C(=O)c1ccc(Cl)cc1` the value was 16.6%; for `O=C(C1=C[C@H](c2ccc3c(c2)OCO3)C[C@H](OCCCCO)O1)N1CCN(Cc2ccc3c(c2)OCO3)CC1`, 3.48%.
